In the supplement of paper PMC12645437, “Orthogonal IMiD-Degron Pairs Induce Selective Protein Degradation in Cells” (ACS Chemical Biology, 2025):
The other results are listed elsewhere or left out.

B1: Q9UKT9 (peptide)
chain: LWCNQCGFQCTQKGNLLRHIKL
B2: Q9UKT9 (peptide)
chain: FTCDQCGAKFTQKGNLLRHIKL
B3: Q9UKT9 (peptide)
chain: FSCEVCGAPFTQKGNLLRHIKL
B4: Q9UKT9 (peptide)
chain: FMCNQCGANFTQKGNLLRHIKL
B5: Q9UKT9 (peptide)
chain: FWCDQCGAWFTQKGNLLRHIKL
B6: Q9UKT9 (peptide)
chain: FWCPVCGADFTQKGNLLRHIKL
B7: Q9UKT9 (peptide)
chain: FNCPVCGAVFTQKGNLLRHIKL
B8: Q9UKT9 (peptide)
chain: FICPVCGAYFTQKGNLLRHIKL
B9: Q9UKT9 (peptide)
chain: FFCNQCGAMFTQKGNLLRHIKL
B10: Q9UKT9 (peptide)
chain: FICEICGRNFTQKGNLLRHIKL
B11: Q9UKT9 (peptide)
chain: FCCPQCGACFTQKGNLLRHIKL
B12: Q9UKT9 (peptide)
chain: FECSVCGHMFTQKGNLLRHIKL
B13: Q9UKT9 (peptide)
chain: FYCEQCGAKFTQKGNLLRHIKL
B14: Q9UKT9 (peptide)
chain: FVCEICGRMFTQKGNLLRHIKL
B15: Q9UKT9 (peptide)
chain: FECDQCGASFTQKGNLLRHIKL
B16: Q9UKT9 (peptide)
chain: FECDVCGAHFTQKGNLLRHIKL
B17: Q9UKT9 (peptide)
chain: FYCNQCGRFFTQKGNLLRHIKL
B18: Q9UKT9 (peptide)
chain: FFCNQCGRTFTQKGNLLRHIKL
B19: Q9UKT9 (peptide)
chain: FECSVCGHRFTQKGNLLRHIKL
B20: Q9UKT9 (peptide)
chain: FTCPVCGAEFTQKGNLLRHIKL
B21: Q9UKT9 (peptide)
chain: FGCNQCGREFTQKGNLLRHIKL
B22: Q9UKT9 (peptide)
chain: FFCPVCGAWFTQKGNLLRHIKL
B23: Q9UKT9 (peptide)
chain: FDCPICGHVFTQKGNLLRHIKL
B24: Q9UKT9 (peptide)
chain: LECNQCGFICTQKGNLLRHIKL
B25: Q9UKT9 (peptide)
chain: LQCPICGFDCTQKGNLLRHIKL
B26: Q9UKT9 (peptide)
chain: FDCNQCGHCFTQKGNLLRHIKL
B27: Q9UKT9 (peptide)
chain: LACPICGFNCTQKGNLLRHIKL
B28: Q9UKT9 (peptide)
chain: FVCPICGRLFTQKGNLLRHIKL
B29: Q9UKT9 (peptide)
chain: FHCDICGASFTQKGNLLRHIKL
B30: Q9UKT9 (peptide)
chain: FWCPQCGAWFTQKGNLLRHIKL
B31: Q9UKT9 (peptide)
chain: FCCDICGAIFTQKGNLLRHIKL
B32: Q9UKT9 (peptide)
chain: FVCDICGAPFTQKGNLLRHIKL

biological target: no compound (DMSO); experiment: log2 fold change of degron read counts, EGFP-low vs EGFP+ sorted cells; higher = lower degron-EGFP level without compound (poor expression or instability); conditions: compound: DMSO control; 18 h
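Further: jurkat cells carrying a lentiviral library of mutant zinc finger degrons fused to EGFP plus mCherry, mCherry+ cells FACS sorted, degron abundance counted by next-generation sequencing.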

| Sequence | log2 fold change of degron read counts |
| --- | --- |
| B1 | 1.1 |
| B2 | -1.15 |
| B3 | -1.48 |
| B4 | -0.475 |
| B5 | 1.43 |
| B6 | 0.675 |
| B7 | -0.155 |
| B8 | 0.615 |
| B9 | 0.363 |
| B10 | -0.787 |
| B11 | -0.519 |
| B12 | -0.83 |
| B13 | -1.72 |
| B14 | -1.45 |
| B15 | -1.85 |
| B16 | -3.17 |

| Sequence | log2 fold change of degron read counts |
| --- | --- |
| B17 | 0.773 |
| B18 | -0.0181 |
| B19 | -2.48 |
| B20 | -1.44 |
| B21 | -0.442 |
| B22 | 1.3 |
| B23 | -0.651 |
| B24 | -0.0985 |
| B25 | 0.343 |
| B26 | -0.257 |
| B27 | 0.819 |
| B28 | 0.38 |
| B29 | -3.09 |
| B30 | 1.68 |
| B31 | -0.633 |
| B32 | -0.795 |
